Reference: paper PMC6919601, “Identification of Plasmodium dipeptidyl aminopeptidase allosteric inhibitors by high throughput screening” (PLoS ONE, 2019)
Several values for one entry are separate records, joined by “and”; a condition that tells them apart may be missing. Identical values can stand only once. The whole screen tested about 110,000 compounds, of which about 230 (0.21%) showed an effect of 50% or more. Some of the results follow.

Each compound was assayed against DPAP1 (Plasmodium falciparum, UniProt Q8IIJ9) (assay: primary screen, percent inhibition; read by cleavage of a fluorogenic dipeptide substrate; higher = more effect of the substance).
Set-up: species or system P. falciparum D10 trophozoite lysates; single well
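Note: 30 min substrate incubation versus DMSO and 10 µM JCP410 controls.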

Chain of DPAP1 (Q8IIJ9 whole entry, looked up): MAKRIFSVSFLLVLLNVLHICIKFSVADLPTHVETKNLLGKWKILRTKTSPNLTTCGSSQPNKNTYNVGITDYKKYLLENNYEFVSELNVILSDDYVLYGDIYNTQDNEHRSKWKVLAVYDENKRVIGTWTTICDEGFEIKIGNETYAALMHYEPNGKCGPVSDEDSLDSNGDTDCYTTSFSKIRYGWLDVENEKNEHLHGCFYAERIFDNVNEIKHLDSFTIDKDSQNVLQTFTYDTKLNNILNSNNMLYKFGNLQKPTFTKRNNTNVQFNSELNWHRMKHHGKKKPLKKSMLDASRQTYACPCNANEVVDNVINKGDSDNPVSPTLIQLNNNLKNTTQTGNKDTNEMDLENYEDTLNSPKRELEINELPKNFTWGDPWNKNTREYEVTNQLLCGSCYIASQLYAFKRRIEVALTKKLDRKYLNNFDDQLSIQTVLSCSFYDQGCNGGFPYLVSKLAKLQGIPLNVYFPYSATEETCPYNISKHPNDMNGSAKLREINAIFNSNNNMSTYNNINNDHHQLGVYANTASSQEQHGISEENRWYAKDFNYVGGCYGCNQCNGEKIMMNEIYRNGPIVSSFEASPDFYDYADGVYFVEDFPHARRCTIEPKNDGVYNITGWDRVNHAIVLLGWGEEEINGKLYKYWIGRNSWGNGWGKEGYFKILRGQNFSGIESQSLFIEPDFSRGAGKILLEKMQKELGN

Compared with `O=C(Nc1cccc(Cl)c1)[C@@H]1C[C@@H]1c1ccccc1`, `CCOC(=O)C1=C(CS(=O)(=O)c2ccc(F)c(C)c2)NC(=O)NC1c1ccccc1` (stereo not drawn) is lower in “% Inhibition @ 10 uM” value: 3.1% for the first, -7.71% for the second.

Compared with `CCOc1ccccc1CN1CCN(c2cccc(C(F)(F)F)c2)CC1`, `O=S(=O)(c1ccc(F)cc1)N1CCN(c2ccccc2)CC1` is lower in “% Inhibition @ 10 uM” value: -0.0404% for the first, -4.91% for the second.

Compared with `COc1ccc(OC)c(NC(=O)c2c(-c3ccccc3)noc2C)c1`, `COc1ccccc1CNC(=O)c1ccc2c(c1)nc(C)n2-c1ccc(Br)cc1` is higher in “% Inhibition @ 10 uM” value: -7.06% for the first, -5.64% for the second.

First: Cc1ccc(S(=O)(=O)N(CC(=O)NC2CCCC2)C2CCCCC2)cc1
Second: COC(=O)c1ccc(-c2ccco2)n1CC(=O)N1CCN(C2CCCCC2)CC1
The “% Inhibition @ 10 uM” value of the first is higher: -2.18% for the first, -5.37% for the second.

Going from `N#CCNC(=O)[C@H](Cc1ccc2ccccc2c1)NC(=O)N1CCOCC1` to `O=C(N[C@@H](Cc1ccccc1)C(=O)N[C@@H](CCc1ccccc1)C(=O)CO)C1CCCN1` (stereo partly drawn), the “% Inhibition @ 10 uM” value rises from -3.97% to -0.778%.

Compared with `Cc1ccc2c(c1)c1c3n2CCN(CCC(=O)O)C3CCC1` (stereo not drawn), `CCCN1CCN(C(=O)c2cc3c(s2)-c2ccccc2OC3)CC1` is higher in “% Inhibition @ 10 uM” value: -1.41% for the first, -1.37% for the second.

Compared with `Cc1occc1C(=O)NCc1ccc2c(c1)OCO2`, `CC(=O)c1c(C)[nH]c(C(=O)NCc2cccs2)c1C` is lower in “% Inhibition @ 10 uM” value: -0.598% for the first, -8.06% for the second.

Compared with `Cn1c(NC(=O)c2cnn(-c3ccccc3)c2-n2cccc2)nc2ccccc21`, `O=C(CCc1nc2cccnc2n1Cc1cccs1)NCCc1ccccc1` is lower in “% Inhibition @ 10 uM” value: 0.275% for the first, -3.45% for the second.

Compared with `O=C(CCc1nc(-c2ccccc2Cl)no1)N1CCCC1`, `O=C(CCc1nc(CN2CCN(S(=O)(=O)Cc3ccccc3)CC2)no1)N1CCCC1` is higher in “% Inhibition @ 10 uM” value: -1.35% for the first, 7.04% for the second.

Compared with `CCOC(=O)c1cnc2cc(-c3ccc(C)cc3)nn2c1C`, `CCCCCc1ccc(-c2ccc(/C=C/C(=O)O)cc2)nc1` is higher in “% Inhibition @ 10 uM” value: 1% for the first, 2.91% for the second.

First: Cc1cc(=O)n(CC(=O)NCc2ccco2)c2c1c(C)nn2C
Second: O=C(CN1CCN(Cc2ccc(F)cc2Cl)C1=O)NCc1cccs1
The “% Inhibition @ 10 uM” value of the first is lower: -1.93% for the first, 0.128% for the second.

Going from `CC/N=C1\SC(CC(=O)Nc2ccc(C(C)=O)cc2)C(=O)N1CC` (stereo not drawn) to `CCOc1ccc(NC(=O)C2=C(C)NC(=O)NC2c2ccc(Br)cc2)cc1` (stereo not drawn), the “% Inhibition @ 10 uM” value rises from -11.6% to -1.17%.

Going from `Cc1cccn2c(O)cc(=O)nc12` to `Cc1ccc(/C=c2\sc3nc(-c4cccc(Cl)c4)nn3c2=O)o1`, the “% Inhibition @ 10 uM” value falls from 7.74% to 5.44%.

Going from `Cc1ccc(-n2ncnc2-c2ccc(Cl)cc2Cl)cc1Cl` to `CS(=O)(=O)C1=NN2C(=N)/C(=C\c3ccc(Sc4ccc(Cl)cc4)o3)C(=O)N=C2S1`, the “% Inhibition @ 10 uM” value rises from -2.48% to 0.163%.

First: O=C(c1ccc(COc2ccc(F)cc2)o1)N1N=C(C(F)F)CC1(O)C(F)F (stereo not drawn)
Second: CCCCOc1ccccc1C1C(C(=O)OC)=CN(Cc2ccc(F)cc2)C=C1C(=O)OC
The “% Inhibition @ 10 uM” value of the first is lower: 3.24% for the first, 3.45% for the second.

Going from `O=C(OC1c2ccccc2Oc2ccccc21)c1ccc(-c2ccccc2)cc1` to `O=[N+]([O-])c1ccc(N2CCN(Cc3ccc(-c4ccccc4)cc3)CC2)cc1`, the “% Inhibition @ 10 uM” value falls from 2.62% to 1.48%.

Going from `COc1ccc2c(Sc3ccc(C)cc3)c(C(=O)NCCCN3CCCC3=O)[nH]c2c1` to `COc1ccc2nc(NC(=O)CCc3nc(C4=CCN(C)CC4)no3)sc2c1`, the “% Inhibition @ 10 uM” value falls from 1.15% to -2.84%.

Compared with `COc1ccccc1-c1nnc(C2CCN(S(=O)(=O)c3c(C)cc(C)cc3C)CC2)o1`, `COc1ccc(S(=O)(=O)NCCO)cc1-c1nnc2c3ccccc3c(C)nn12` is lower in “% Inhibition @ 10 uM” value: -3.11% for the first, -4.78% for the second.

First: COc1cc(CN2CCN(C(=O)C(c3ccccc3)c3ccccc3)CC2)cc(OC)c1O
Second: CC(C)(C)c1ccc(-c2nnc(SCC(=O)O)n2Cc2ccccc2)cc1
The “% Inhibition @ 10 uM” value of the first is lower: -3.04% for the first, -0.495% for the second.

Compared with `OCCn1c2ccccc2c2cc(Br)ccc21`, `O=S(=O)(Nc1ccc(O)c2ccccc12)c1cccs1` is lower in “% Inhibition @ 10 uM” value: 4.22% for the first, 2.51% for the second.

Going from `CC1CCN(c2c(NCC3CCC(C(=O)NC4CCCCC4C)CC3)c(=O)c2=O)CC1` (stereo not drawn) to `CCc1cc2c(cc3c(=O)n(CC(=O)NC4CCCC(C)C4C)ncn32)s1` (stereo not drawn), the “% Inhibition @ 10 uM” value rises from -3.96% to 3.29%.

Going from `CCOc1ccc2nc(N3CCC(C(=O)NC)CC3)sc2c1` to `CCOc1ccc(/C=C2/SC(N3CCCCC3)=NC2=O)cc1`, the “% Inhibition @ 10 uM” value falls from 0.137% to -1.89%.

Compared with `CCCCC(=O)N(CC)c1nc(-c2ccccc2)cs1`, `CC(C)(C)c1ccc(C(CC(=O)O)NC(=O)CCCc2ccccc2)cc1` (stereo not drawn) is higher in “% Inhibition @ 10 uM” value: -0.426% for the first, 6.17% for the second.

Going from `CCCc1nnc(NC(=O)C(CC)Sc2nnc3c4ccccc4n(CC)c3n2)s1` (stereo not drawn) to `CCOC(=O)c1oc2ccc(Cl)cc2c1NC(=O)CCCN1C(=O)c2ccccc2C1=O`, the “% Inhibition @ 10 uM” value rises from -3.64% to -0.703%.

Compared with `COc1ccc(CCn2c(N)cc(=O)[nH]c2=O)cc1OC`, `CCc1nnc(S)n1/N=C/c1ccc(OC)c(OC)c1` is higher in “% Inhibition @ 10 uM” value: -16.3% for the first, 3.81% for the second.

Compared with `Cc1ccc(Nc2nc(N)nc(CSc3ncccn3)n2)cc1`, `O=C(c1ccc2c(c1)sc1nc(-c3ccc(F)cc3)cn12)N1CCN(c2ncccn2)CC1` is higher in “% Inhibition @ 10 uM” value: -2.09% for the first, 15.9% for the second.

First: C=CCNc1sc(S(=O)(=O)CC)nc1S(=O)(=O)c1ccc(Cl)cc1
Second: CCC1CCCCN1CCCNC(=O)c1ccc(CS(=O)(=O)Cc2ccccc2F)o1 (stereo not drawn)
The “% Inhibition @ 10 uM” value of the first is higher: -2.47% for the first, -4.53% for the second.

First: CCOC(=O)N1CCC(N2CC3(C)CC2CC(C)(C)C3)CC1 (stereo not drawn)
Second: O=C(CSc1nc(=O)c2ccccc2s1)NC12CC3CC(CC(C3)C1)C2
The “% Inhibition @ 10 uM” value of the first is lower: -1.82% for the first, -0.403% for the second.

First: CCOC(=O)/C=C/C(=O)Nc1nccs1
Second: CCN(CC)C(=O)NC(=O)c1c(C)cc(Cl)nc1Cl
The “% Inhibition @ 10 uM” value of the first is lower: -3.21% for the first, 4.32% for the second.

First: O=C1C(=O)N(CN2CCCCCC2)c2ccccc21
Second: CC(=C/C(=O)O)/C=C/c1c[nH]c2ccccc12
The “% Inhibition @ 10 uM” value of the first is lower: -6.68% for the first, 14.3% for the second.

Compared with `Cc1ccc2[nH]c(C3=C(N)N(CC(C)C)CC3=O)nc2c1`, `COc1ccc(C(=O)OC2CC3CCC(C2)[N+]3(C)[O-])cc1OC` (stereo not drawn) is higher in “% Inhibition @ 10 uM” value: 0.486% for the first, 8.36% for the second.

In the case of `CCOc1ccccc1C(=O)NC1(C(F)(F)F)NC(=O)N(C)C1=O` (stereo not drawn), the “% Inhibition @ 10 uM” value was -0.736% and 5.17%.
